From the supplement of paper PMC3334620
Over roughly 33,000 sequences, “E-score (-0.5 to 0.5)” has its median near -0.012; the highest 2% begin near 0.29. This is one part of the list.

target: T1, Ybr033w (UniProt P38073); experiment: PBM E-score (8-mer binding enrichment) (E-score (-0.5 to 0.5)); higher = stronger / more preferred TF binding; most listed sequences are background and not binding sites; settings: protein concentration: 200 nM; construct: GST-full length
T1 sequence: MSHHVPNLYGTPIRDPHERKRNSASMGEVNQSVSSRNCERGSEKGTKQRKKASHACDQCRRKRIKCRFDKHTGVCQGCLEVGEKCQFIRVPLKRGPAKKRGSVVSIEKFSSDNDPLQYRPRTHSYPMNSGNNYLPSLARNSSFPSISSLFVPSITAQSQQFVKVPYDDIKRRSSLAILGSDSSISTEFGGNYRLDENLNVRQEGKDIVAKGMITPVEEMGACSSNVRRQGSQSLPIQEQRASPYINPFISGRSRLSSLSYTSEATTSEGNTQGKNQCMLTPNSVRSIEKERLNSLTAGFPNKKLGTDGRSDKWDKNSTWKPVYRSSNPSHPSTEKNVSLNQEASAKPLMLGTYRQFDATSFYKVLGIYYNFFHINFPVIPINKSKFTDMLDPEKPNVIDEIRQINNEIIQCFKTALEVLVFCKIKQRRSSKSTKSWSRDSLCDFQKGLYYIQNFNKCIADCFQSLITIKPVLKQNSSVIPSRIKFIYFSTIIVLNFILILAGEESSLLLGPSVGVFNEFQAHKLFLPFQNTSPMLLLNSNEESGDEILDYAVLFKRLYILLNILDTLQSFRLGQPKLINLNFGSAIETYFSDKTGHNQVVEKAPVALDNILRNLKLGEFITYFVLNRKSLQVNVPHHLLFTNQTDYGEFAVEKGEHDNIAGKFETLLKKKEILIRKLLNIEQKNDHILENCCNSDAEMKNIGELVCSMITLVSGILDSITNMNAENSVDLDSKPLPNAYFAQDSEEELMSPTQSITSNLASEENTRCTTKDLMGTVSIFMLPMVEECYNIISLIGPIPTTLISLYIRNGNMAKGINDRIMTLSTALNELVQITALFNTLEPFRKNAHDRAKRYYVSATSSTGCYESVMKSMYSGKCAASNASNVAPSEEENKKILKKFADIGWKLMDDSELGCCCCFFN
Summary of the method: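 Universal all-10-mer Agilent arrays, double-stranded by primer extension on fresh or once-stripped slides, were probed with about 100-200 nM GST-tagged yeast transcription factors made by PURExpress. Fluorescent anti-GST detected bound protein, and masliner normalised the scans. E-scores from the Universal PBM Analysis Suite were given to each ungapped eight-base word pooled with its reverse complement.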

| Sequence | PBM E-score |
| --- | --- |
| AAGTCCAG | -0.00674 |
| GCGAATAA | 0.0126 |
| AGACCGAG | 0.0515 |
| GGAATGGA | -0.0588 |
| CCAGGGCC | -0.294 |
| ACGATAAG | -0.00055 |
| AATTCTAC | 0.222 |
| AAACCAAA | 0.128 |
| ACTGTAAA | 0.24 |
| TGACCGAA | -0.0325 |
| ATGGGTAG | -0.0658 |
| CATAAGAC | 0.123 |
| ACCCGGAG | 0.0501 |
| GAACTTGC | -0.0233 |
| CTTCGATA | 0.169 |
| GAGGATTA | 0.132 |
| GCCGACAC | -0.193 |
| GGCAGTAA | -0.0561 |
| GCAGCACA | 0.0148 |
| CGGGGGTA | -0.214 |
| AGTGTGCC | -0.0819 |
| CCCGAAAA | 0.134 |
| CACGCTTA | -0.00386 |
| AGGCTAAT | 0.106 |
| AATGCTGT | 0.0336 |

| Sequence | PBM E-score |
| --- | --- |
| GCCTGCCA | -0.171 |
| CATGTACC | -0.215 |
| CCAAAACC | 0.145 |
| AGCCAGCC | -0.241 |
| GTCAACAA | -0.00832 |
| AAATAGTA | 0.248 |
| ACTGTCTG | -0.113 |
| CTATCGAG | 0.101 |
| GGTCACCA | -0.232 |
| CCGTACTC | -0.00366 |
| GCCGCCTA | -0.207 |
| ACCAACAT | 0.241 |
| CTGTGTAC | 0.0882 |
| AGTTATCG | 0.156 |
| AAGCTAAT | 0.177 |
| CGTGGGGC | -0.32 |
| CCAGCGAA | -0.149 |
| CAGGTGAA | 0.0712 |
| CAGATCCA | 0.0778 |
| GATTTCAA | 0.174 |
| TGATAAAA | 0.299 |
| ATGATTAG | 0.0838 |
| GGCTACCA | -0.203 |
| AGCCACCT | -0.217 |
| ATAGGACG | -0.217 |

| Sequence | PBM E-score |
| --- | --- |
| CGTTACGA | 0.0624 |
| GCATGCGA | 0.122 |
| GCCGTGAC | -0.0789 |
| GGTTCTGA | -0.0472 |
| CCCCTCCC | -0.238 |
| AATCAAGA | 0.185 |
| TAAAAGTA | 0.194 |
| ATGGCCCA | -0.00322 |
| ACTGACCG | -0.244 |
| CATCTTGA | -0.0154 |
| CGTGACAA | -0.0475 |
| CTTCCCGA | 0.101 |
| GGAGATAC | -0.0648 |
| ATCTTGAG | -0.0511 |
| CAGGGCGA | -0.0411 |
| GGGACGAA | -0.19 |
| AACGCATT | 0.123 |
| ATCGACTC | -0.182 |
| AGTCATCA | -0.121 |
| AGCCCAAC | 0.0217 |
| CGTCGCAG | -0.0303 |
| ACGTAACC | 0.0248 |
| GGACATTA | 0.0609 |
| GGATGGTA | 0.129 |
| CCCGGTGA | -0.183 |

| Sequence | PBM E-score |
| --- | --- |
| CAATGATG | 0.0296 |
| AGTAAGTC | -0.022 |
| AATCCCGC | 0.106 |
| CCAATCTA | 0.0466 |
| CTATCTAC | 0.0222 |
| GCCTGACA | -0.312 |
| TGGAGAAA | 0.133 |
| TCTGTGCA | 0.0377 |
| TACCAACA | 0.22 |
| ACCGGAGC | -0.174 |
| AAGCAGGT | 0.0163 |
| CGGCATCC | -0.216 |
| CAACCTCG | 0.0191 |
| CGAATACG | -0.0836 |
| CGTATACC | -0.103 |
| TAGAGGGA | -0.179 |
| CTGTAAAC | 0.187 |
| ACGCCACA | 0.0472 |
| CTTCCCTC | -0.163 |
| ACCTCCCT | -0.113 |
| ACCACCTC | -0.00951 |
| TGGCCAAA | 0.00462 |
| CCCTACAA | -0.0961 |
| GGAGGGTA | -0.119 |
| CGCCAGTA | -0.0432 |

| Sequence | PBM E-score |
| --- | --- |
| GATTCGCC | -0.0869 |
| CAGTTTCC | 0.094 |
| AAGGTCCG | -0.193 |
| GATCGTAC | -0.25 |
| ACATCTCT | -0.0224 |
| CTAGCTTC | 0.0557 |
| AACATTTG | -0.0656 |
| GGCAAAAA | 0.133 |
| AAAACGCG | 0.0943 |
| AGTCGTCA | -0.066 |
| AATTTTGG | 0.104 |
| AAATAACC | 0.094 |
| TCGTATAA | 0.236 |
| CCAAAGAG | -0.0366 |
| GAGGTGAA | 0.0754 |
| ACGAGTAC | 0.128 |
| CCCACATC | -0.228 |
| CAACCGTG | -0.0804 |
| AAGGAATA | 0.219 |
| CGGCGGGA | -0.35 |
| CACGCCCA | -0.158 |
| ATACGCCA | 0.0161 |
| AGAGGAGG | -0.26 |
| GCATGTCA | -0.125 |
| GCTTCAAC | -0.153 |

| Sequence | PBM E-score |
| --- | --- |
| CGTCGAAA | 0.154 |
| GGCCGAAC | -0.238 |
| CCCTCCGG | -0.202 |
| ACTAAGAC | 0.026 |
| GTTCGCGA | 0.0447 |
| CTCGTCAA | -0.0138 |
| CTGTCCCA | -0.3 |
| GAGCCGCC | -0.236 |
| AGTTATAC | 0.088 |
| ACCGAGAC | -0.219 |
| GGTCAACC | -0.111 |
| CCTCAGCC | -0.2 |
| GAATCGTA | 0.0349 |
| AGCTTTAA | 0.106 |
| GAGAGCAA | -0.0432 |
| GCTAAACC | -0.162 |
| AGATTACA | 0.0886 |
| ATTGGACC | -0.129 |
| ACGTGCGA | -0.0447 |
| CTCACCAA | 0.179 |
| ATGGAATC | 0.198 |
| GCTGGCAC | -0.243 |
| CAGCACCC | -0.258 |
| ATCAAGAG | 0.212 |
| ATTTGTCC | 0.26 |

| Sequence | PBM E-score |
| --- | --- |
| AAGGACTG | -0.16 |
| GCCCTAAC | -0.0245 |
| GTTCCCGA | -0.0684 |
| TAGCTATA | 0.0277 |
| CTCATGGC | -0.197 |
| AACCGCAA | 0.127 |
| ACACAGTC | -0.0764 |
| CCGTCTAG | -0.124 |
| CCAAAGCC | -0.0563 |
| GTCTCTAA | -0.0774 |
| ACTACATA | 0.233 |
| CTAATCAC | 0.134 |
| CTTTCTCC | -0.103 |
| CTGATGCC | -0.0338 |
| CATTGATC | 0.236 |
| ATGTATAC | 0.229 |
| GACGAGCC | -0.0703 |
| CGGGCCTA | -0.216 |
| GAACTTTA | -0.0884 |
| CGGCCACA | -0.119 |
| ACGACCCA | -0.188 |
| GCATGCTA | -0.0885 |
